In PubChem BioAssay AID686978 (National Center for Advancing Translational Sciences (NCATS), 2013):
In all, about 420,000 compounds went through this assay and about 64,000 (15%) were called active. Inconclusive results, whose numbers are uncertain, are shown with a selection of clear calls. Calls come from the whole dose curve; as a rule, active = well fitted inhibition curve with a large enough effect; inconclusive = small, poorly fitted or top-dose-only effect; inactive = flat fitted curve, though single readings scatter. No potency is given beside an inconclusive call; the fits are too rough.

experiment: qHTS for Inhibitors of human tyrosyl-DNA phosphodiesterase 1 (TDP1): qHTS in cells in absence of CPT; details: DT40 Tdp1-/- hTDP1 cells, no CPT, ATP luminescence, 48 h; activity change, negative = growth inhibition: at 46.2 µM (top of the series) unless noted; note: nearly all actives have a fitted effect of over 55% in size
Summary of the method: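 Readout: luminescence from CellTiter-Glo after 30 min in the dark at RT. Cells: DT40 Tdp1-/- with stable hTDP1, 400/well. Exposure: compounds alone, ≥48 hr, 37 °C.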
% is set by controls: 0 for no effect and ±100 for the full control effect; potency is the fitted concentration of half-maximal effect; tags give direction and shape of the fitted curve.

Row | Structure (SMILES) | Potency | activity change, negative = growth inhibition
1 | C=CCn1c(SCC(=O)NC2(C)CCS(=O)(=O)C2)nc2ccccc21 (stereo unspecified) | inactive | –
2 | Cc1cc(C(=O)OCC(=O)NCc2cccs2)ccc1[N+](=O)[O-] | inactive | –
3 | CCCCC1CCC(C(=O)Nc2ccccc2N2CCOCC2)CC1 (stereo unspecified) | inconclusive [inhibitor, single point] | –
4 | Cc1cc(CNC(=O)c2cc(COc3ccc(F)c(F)c3)on2)nn1C | inconclusive [inhibitor, single point] | –
5 | COCCCNC(=O)C(=O)NCC(c1ccc2c(c1)OCO2)N1CCOCC1 (stereo unspecified) | inconclusive [inhibitor, partial curve, poor fit] | –
6 | CNC(=O)CN(c1ccc(Oc2ccccc2)cc1)S(=O)(=O)c1ccc(C)cc1 | inactive | –
7 | CCC(C(=O)NC1CCCC1)N(C(=O)Cn1nnc(-c2ccc(OC)c(OC)c2)n1)c1cccc(O)c1 (stereo unspecified) | inactive | –
8 | CC1CCCN(C(=O)CN2C(=O)c3ccccc3S2(=O)=O)C1 (stereo unspecified) | inactive | –
9 | O=C(CSc1ccc2c(c1)OCCO2)NC(=O)Cc1ccccc1 | inactive | –
10 | COCCNC(=O)NC12CC3(C)CC(C)(CC(C)(C3)C1)C2 | inconclusive [inhibitor, single point] | –
11 | CN(C)CC(O)CN(c1ccccc1)c1ccccc1 (stereo unspecified) | – | inconclusive: -33.6% [inhibitor]
12 | O=C(CSc1nnc(SCc2ccc(Cl)cc2)s1)N/N=C/c1ccc(Cl)cc1Cl | inactive | –
13 | Cc1nc(Cl)sc1C(=O)Nc1ccc(C(C)(C)C)cc1 | inconclusive [inhibitor, single point] | –
14 | CC1CN(C(=O)COC(=O)c2cccc(NS(=O)(=O)c3ccccc3)c2)CC(C)O1 (stereo unspecified) | inactive | –
15 | COc1ccc(NC(=O)C2=C(C)Nc3nc(CCCO)nn3C2c2ccc(O)cc2)cc1 (stereo unspecified) | inactive | –
16 | Cc1ccc(/C=N/NC(=O)Cn2cnc3c2c(=O)n(C)c(=O)n3C)s1 | inconclusive [inhibitor, single point] | –
17 | Cc1ccc(C)c(S(=O)(=O)c2nnn3c2nc(N2CCOCC2)c2sccc23)c1 | active: 23.1 µM | –
18 | CCCOc1ccc(-c2nnn(CC(=O)Nc3cccc(C(=O)OC)c3)n2)cc1 | inconclusive [inhibitor, single point] | –
19 | O=C(CCc1nnc(-c2ccc3c(c2)OCO3)o1)NCCc1ccccc1F | inconclusive [inhibitor, single point] | –
20 | COc1cc2ncnc(NCc3ccc(C)cc3)c2cc1OC | active: 23.1 µM | –
21 | O=C1ON=C(c2ccccc2)/C1=C/c1ccco1 | inconclusive [inhibitor, single point] | –
22 | Cc1cc(NC(=O)CCOc2ccc(F)cc2)no1 | inactive | –
23 | CCCCN1C(=O)C(CC(=O)NCC2CCCCC2)CC(C(=O)N(C(C)C)C(C)C)=C1C (stereo unspecified) | inconclusive [inhibitor, single point] | –
24 | O=C(c1cc(C2CCCCN2S(=O)(=O)c2ccc(F)cc2F)on1)N1CCOCC1 (stereo unspecified) | inactive | –
25 | O=C1CCC(C(=O)N2CCN(c3ccccc3)CC2)CN1CC1CCCCC1 (stereo unspecified) | inconclusive [inhibitor, single point] | –
26 | COc1ccccc1CN1CC(C(=O)N2CCOCC2)CCC1=O (stereo unspecified) | inactive | –

Row | Structure (SMILES) | Potency | activity change, negative = growth inhibition
27 | O=C(CSc1nccc(=O)[nH]1)c1ccco1 | inactive | –
28 | O=C(c1cc(-c2ccccc2)on1)N1CCOc2ccc(CN3CCOCC3)cc2C1 | inconclusive [inhibitor, single point] | –
29 | CC(C)N(Cc1ccccc1)c1ncnc2c1nnn2C | inconclusive [inhibitor, partial curve] | –
30 | CC=Cc1cc2c(c(=O)o1)C(=O)C(O)C(C)O2 (stereo unspecified) | active: 2.91 µM | –
31 | COc1ccc(C2CC(c3ccc(OC)cc3)n3nc(NS(C)(=O)=O)nc3N2)cc1 (stereo unspecified) | inactive | –
32 | Cc1cccc(C)c1NC(=S)N1CCCN(Cc2ccc(F)cc2)C1 | inconclusive [inhibitor, single point] | –
33 | O=C(O)CC1(CC(=O)Nc2cc(C(F)(F)F)cc(C(F)(F)F)c2)CCCCC1 | inactive | –
34 | CCOCCCNC(=O)CN(c1cc([N+](=O)[O-])ccc1OC)S(C)(=O)=O | inactive | –
35 | Cc1cc(C)c2nc(Nc3nc(CSc4nc5ccccc5[nH]4)cc(=O)[nH]3)nc(C)c2c1 | inconclusive [inhibitor, partial curve] | –
36 | CCCc1cc(CNC(=O)C2CCC(=O)N(CCc3cccc(F)c3)C2)on1 (stereo unspecified) | inactive | –
37 | CC1CCCN(C(=O)C(C)Nc2cc(Cl)ccc2N2CCOCC2)C1 (stereo unspecified) | inconclusive [inhibitor, single point] | –
38 | Cc1ccccc1N1C(=O)CN(Cc2sccc2C)C1=S | inactive | –
39 | Cc1ccccc1-c1nc(NCc2cccnc2)c2ccccc2n1 | inconclusive [inhibitor, full curve] | –
40 | CCCCc1cc(=O)oc2cc(C)cc(OCC(=O)N3CCC(C(=O)O)CC3)c12 | inactive | –
41 | Cc1cccn2c(=O)c(C=O)c(Cl)nc12 | active: 2.31 µM | –
42 | Cc1cc(N2CCOCC2)nc2ccccc12 | inactive | –
43 | O=C(COc1ccccc1)NCC(=O)Nc1cccc(S(=O)(=O)NC2=NCCC2)c1 | inactive | –
44 | O=C(NCc1ccc(Cl)s1)C1CCC(=O)N(CCc2ccccn2)C1 (stereo unspecified) | inactive | –
45 | CCN(Cc1nc2ccccc2c(=O)[nH]1)C(=O)COc1ccccc1Cc1ccccc1 | active: 4.11 µM | –
46 | COc1ccc(N2CCN(C(=O)c3ccc4c(c3)NC(=O)C(CSCc3ccccc3F)N4)CC2)cc1 (stereo unspecified) | inconclusive [inhibitor, single point] | –
47 | Cc1ccc(NC(=O)C2C3/C=C\CCCCC32)cc1C (stereo unspecified) | inactive | –
48 | CCc1cccc(NC(=O)CCc2c(C)nc3c(c2C)c(=O)n(C)c(=O)n3C)c1 | inconclusive [inhibitor, single point] | –
49 | Nc1[nH]nc2nc(-c3ccccc3)[nH]c(=O)c12 | inconclusive [inhibitor, single point] | –
50 | COc1ccccc1N1CC(C(=O)NC2CCCCCC2)CC1=O (stereo unspecified) | inconclusive [inhibitor, single point] | –
51 | CCn1ncc2c(OCc3ccc(C#N)cc3)cc(C)nc21 | inconclusive [inhibitor, single point] | –
52 | COc1ccc(C(CNC(=O)c2cccc(S(=O)(=O)N3CCCC3)c2)N2CCCC2)cc1 (stereo unspecified) | inactive | –

Row | Structure (SMILES) | Potency | activity change, negative = growth inhibition
53 | Cc1ccc(CNC(=O)CCSCc2ccccc2F)cc1 | inactive | –
54 | CCc1ccc(NC(=O)C(=O)c2cn(CC(=O)N3CCCCC3)c3ccccc23)cc1 | inconclusive [inhibitor, partial curve, poor fit] | –
55 | CCC(C)/C(C)=N/NC(=O)c1ccc(CSc2nc3ccccc3s2)cc1 (stereo unspecified) | active: 23.1 µM | –
56 | CCCC(c1nnnn1C(C)(C)C)N1CCN(Cc2ccccc2)CC1 (stereo unspecified) | – | inconclusive: -33.6% [inhibitor]
57 | CCCCNC(=O)C1(C)CCCCN1C(=O)c1ccc(F)c(C)c1 (stereo unspecified) | inconclusive [inhibitor, partial curve] | –
58 | O=C(Cn1c(=O)cnc2ccccc21)N1CCCc2ccccc21 | inconclusive [inhibitor, single point] | –
59 | Cc1nn(Cc2cccc(C(=O)NC3CCCCC3)c2)c(C)c1Cl | inconclusive [inhibitor, single point] | –
60 | O=C(c1ccc([N+](=O)[O-])cc1[N+](=O)[O-])N1CCc2ccccc21 | inconclusive [inhibitor, single point] | –
61 | CC(C)(C)C(c1nc2ccccc2[nH]1)n1c(-c2cc(Cl)cc(Cl)c2)nc2ccccc21 (stereo unspecified) | active: 16.4 µM | –
62 | Cc1cn2cc(CNC(=O)CN3Cc4ccccc4OC(c4ccccc4F)C3)nc2s1 (stereo unspecified) | inconclusive [inhibitor, single point] | –
63 | Cc1ccc(N(C(=O)COc2ccccc2C)S(=O)(=O)c2ccc(Cl)cc2)cc1 | inconclusive [inhibitor, single point] | –
64 | Cc1cccn2c(=O)c(/C=C(\C#N)C(N)=O)c(N3CCCCCC3)nc12 | inconclusive [inhibitor, single point] | –
65 | Cc1ccc(-n2nnnc2/C=C\Nc2cc(C)on2)cc1 | inconclusive [inhibitor, single point] | –
66 | COc1ccccc1/C=C/C(=O)OCC(=O)Nc1cc(C(F)(F)F)ccc1N1CCOCC1 | active: 2.59 µM | –
67 | O=C(COC(=O)/C=C/c1ccc(S(=O)(=O)N2CCOCC2)cc1)NC1CCCCCCC1 | inactive | –
68 | CCN(C(=O)CN1CCN(c2ccccc2F)CC1)c1c(N)n(Cc2ccccc2)c(=O)[nH]c1=O | inactive | –
69 | COc1ccc(N2CCN(CCCNC(=O)C3(S(=O)(=O)c4ccc(Cl)cc4)CC3)CC2)cc1 | inconclusive [inhibitor, single point] | –
70 | CN1CCc2ccccc2C1Cc1ccccc1NC(=O)c1sc2ccccc2c1Cl (stereo unspecified) | active: 6.51 µM | –
71 | CC(C)(C)NC(=O)Cn1c(Cl)nc2ccccc21 | inconclusive [inhibitor, single point] | –
72 | COc1ccc(/C=C\c2onc(C)c2S(=O)(=O)N2CCC(C(=O)NCCC(C)C)CC2)cc1 | – | inconclusive: -34.1% [inhibitor]
73 | N#CCSc1nnc(COc2ccc3ccccc3c2)o1 | – | inconclusive: -30.3% [inhibitor]
74 | Cc1ccc(S(=O)(=O)N2CCOCC2)cc1-c1n[nH]c(=S)n1-c1ccccc1 | inactive | –
75 | O=C(COc1ccccc1)NCC1(N2CCCCC2)CCCCC1 | inactive | –
76 | CN(CC(=O)Nc1ccc(Cl)cc1)C1CCCCC1 | inconclusive [inhibitor, single point] | –
